For 167 variants, nonsense suppression results are on record in the RNAGym collection of RNA variant scans (doi:10.1101/gad.245936.114).

Variants at the floor of the assay are shown more often than the library holds them.

First the molecules themselves.
B1: tRNA (parent)
chain: CUCUCGGUAGCCAAGUUGGUUUAAGGCGCAAGACUUUAAUUUAUCACUACGAAAUCUUGAGAUCGGGCGUUCGACUCGCCCCCGGGAGAUUUUUUCCUCGAGCAA

The variants in the data set derive from B1. Put plainly: nonsense suppression (GFP-seq) (ratio to wild type); higher = more function; SUP4oc tRNA, yeast GFP reporter sort-seq. In a few lines: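 To measure nonsense suppression, tRNA variants from a library carrying ~3% random mutations were integrated into the yeast genome alongside RFP and a GFP ochre reporter under galactose control. Growth took place in raffinose/galactose medium supplemented with 80 mg/L adenine, followed by sorting into GFP/RFP bins and Illumina sequencing of each bin (phred ≥30). For each variant with ≥100 reads and ≥30 cells, the bin median GFP/RFP values were weighted by its estimated cell share per bin and referenced to the unmutated parent tRNA.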
For U8G A14U, the nonsense suppression is at most 0.026.

On to A23C G66A, for which the nonsense suppression was at most 0.026.

For the variant A24U A33C U58A U70G, the nonsense suppression was at most 0.026.

On to G19U A74U G85C, for which the nonsense suppression is at most 0.026.

For C12U A30G, the nonsense suppression amounted to 0.363.

For the variant U2C U76A, the nonsense suppression is at most 0.026.

On to U58C C68U C77A C79A, for which the nonsense suppression was at most 0.026.

Turning to G18C G26U, the nonsense suppression is at most 0.026.

C11U G28C: the nonsense suppression was at most 0.026.

Regarding A13G G19A, the nonsense suppression was at most 0.026.

For the variant U17C C81U, the nonsense suppression is at most 0.026.

With C12U U16G A23C U76A, the nonsense suppression was at most 0.026.

Regarding G6A A14G C68U, the nonsense suppression is at most 0.026.

As to G6A G15C A89U, the nonsense suppression is at most 0.026.

For the variant A13U G28U U58G, the nonsense suppression is at most 0.026.

With C1U C11G C64G G69U C77G, the nonsense suppression is at most 0.026.

Turning to C1A G7C, the nonsense suppression was at most 0.026.

For the variant U63C, the nonsense suppression amounted to 1.05.

With U8A U22G G65U G66A, the nonsense suppression was at most 0.026.

Take C72A G85C: the nonsense suppression is at most 0.026.

As to A9G G26U, the nonsense suppression is at most 0.026.

Take G19U C34U A62C: the nonsense suppression is at most 0.026.

For A31U A62G U70C, the nonsense suppression is at most 0.026.

Turning to A9U C12A G19C G78A, the nonsense suppression is at most 0.026.

With C5U U35G G67U, the nonsense suppression was at most 0.026.

For the variant G6A G61C C81U, the nonsense suppression is at most 0.026.

As for A23G, the nonsense suppression was at most 0.026.

In the case of U57C A87C, the nonsense suppression was at most 0.026.

U4G U20C C75A: the nonsense suppression is at most 0.026.

As to G19U C82U A89G, the nonsense suppression was at most 0.026.

In the case of A14C A74C, the nonsense suppression was at most 0.026.

Consider A54C C81G, for which the nonsense suppression is at most 0.026.

On to U55C C80U, for which the nonsense suppression was at most 0.026.

Consider C1G G7A G25A A31U U63C C80A, for which the nonsense suppression was at most 0.026.

Consider A33G G78U, for which the nonsense suppression was at most 0.026.

U21C A30G: the nonsense suppression was 0.967.

Consider A14G A31G, for which the nonsense suppression is 0.0611.

A30U A74U: the nonsense suppression was 0.0497.

On to G32U C81G, for which the nonsense suppression was at most 0.026.

For the variant C3U U4C A14G G28U A60C, the nonsense suppression was at most 0.026.

For the variant A14C G59A C72U, the nonsense suppression is at most 0.026.

As for C34A G85C, the nonsense suppression is at most 0.026.

As for G65C G73U A74C G88C, the nonsense suppression is at most 0.026.

Consider A54C C56A, for which the nonsense suppression is at most 0.026.

In the case of A13U U16G A33U, the nonsense suppression came out at 0.0384.

As for C3U G88A, the nonsense suppression is at most 0.026.

As to U4G G15U C64U, the nonsense suppression is at most 0.026.

As for C11G C34G, the nonsense suppression is at most 0.026.

For the variant U4A A30U C81A, the nonsense suppression was at most 0.026.

A9G U71G: the nonsense suppression was at most 0.026.

For the variant C11U U63G, the nonsense suppression is 0.034.

On to U63C U71A, for which the nonsense suppression was at most 0.026.

C27U C75A: the nonsense suppression turned out to be 0.641.

On to C68G G86A, for which the nonsense suppression was at most 0.026.

With C3U U63G G67C, the nonsense suppression is at most 0.026.

C56U G66C U76G C80U: the nonsense suppression is at most 0.026.

In the case of G6C U58G U63A, the nonsense suppression was at most 0.026.

As for G59A A89G, the nonsense suppression is at most 0.026.

Regarding U16C U22C G61C, the nonsense suppression stood at 0.207.

Take U22A G65A C80G: the nonsense suppression is at most 0.026.

On to C12U C29A C68U, for which the nonsense suppression was at most 0.026.

As for U57A U63A C80U C82A, the nonsense suppression is at most 0.026.

On to U21G U22G G28A, for which the nonsense suppression was determined as 0.206.

Regarding U55G U57G A87C, the nonsense suppression is at most 0.026.

Turning to U20G G28U A30U, the nonsense suppression was at most 0.026.

With U22A G65A G66U G67C, the nonsense suppression is at most 0.026.

U20G G25U: the nonsense suppression was at most 0.026.

As for A9U U21C G67C C79G, the nonsense suppression was at most 0.026.

Turning to G67A C77A C82G, the nonsense suppression was at most 0.026.

Consider U20C C80G C82U, for which the nonsense suppression is at most 0.026.

Take U58G C77G: the nonsense suppression is at most 0.026.

As for U17C U71C, the nonsense suppression was at most 0.026.

For C11U A23C U55G U57G G61A, the nonsense suppression is at most 0.026.

For the variant G73U U76G, the nonsense suppression was at most 0.026.

For the variant U57A G61U A87G, the nonsense suppression is at most 0.026.

With C11G A23U G86A, the nonsense suppression was at most 0.026.

For A23G U55A U71G, the nonsense suppression was at most 0.026.

For G15A C79U, the nonsense suppression was at most 0.026.

For U20A A24G A89C, the nonsense suppression was at most 0.026.

For U20C G69C U71C, the nonsense suppression was at most 0.026.

Take U17C A33G: the nonsense suppression came out at 0.0608.

Consider G65C U76A, for which the nonsense suppression is at most 0.026.

On to C34G G59A, for which the nonsense suppression was at most 0.026.

In the case of C12G G18C A87C A89C, the nonsense suppression is at most 0.026.

As to G18C G67U, the nonsense suppression is at most 0.026.

Take A24U G73C: the nonsense suppression is at most 0.026.

As to G15U A31G C64A U71G, the nonsense suppression is at most 0.026.

U22A C80A: the nonsense suppression was at most 0.026.

With G7A G10U U20A U35G U57G U63C, the nonsense suppression is at most 0.026.

Consider G25U A31G, for which the nonsense suppression was at most 0.026.

Turning to U4G A9U G18U A23C, the nonsense suppression is at most 0.026.

In the case of C12G G61A C77A, the nonsense suppression was at most 0.026.

Regarding U22G G88U, the nonsense suppression is at most 0.026.

For C1G A60C C64A, the nonsense suppression is at most 0.026.

Turning to A30G U63A G69C C79A, the nonsense suppression is at most 0.026.

Turning to U22A G66C, the nonsense suppression is at most 0.026.

In the case of U76C, the nonsense suppression is 1.

Regarding C5A U8G U20C G65A, the nonsense suppression was at most 0.026.

For A31U G66C A87C, the nonsense suppression was at most 0.026.

Consider A9G A33U C34G U71A, for which the nonsense suppression was at most 0.026.

As to U2G A13G A24G G59U C83A G84A, the nonsense suppression is at most 0.026.

On to G67U C81U, for which the nonsense suppression was at most 0.026.

For U17C G69A U70C G78U C83A, the nonsense suppression was at most 0.026.

Take C3G A23G C27U C81A C83A G86A: the nonsense suppression is at most 0.026.

As to A24G G66C A74C G84C A87U, the nonsense suppression is at most 0.026.

Regarding G15C G66C A87G G88A, the nonsense suppression is at most 0.026.

For the variant C1U A54U U55C, the nonsense suppression was at most 0.026.

On to A24G A62G, for which the nonsense suppression was at most 0.026.

In the case of A9C C11U G67A, the nonsense suppression is at most 0.026.

Take C11G A23U G67U A74G: the nonsense suppression was at most 0.026.

In the case of G19C C29U U55C A89C, the nonsense suppression was at most 0.026.

As to U2G C12G A13C G25U A33C A74U, the nonsense suppression is at most 0.026.

For C11G G18C, the nonsense suppression was at most 0.026.

In the case of A30C U55G, the nonsense suppression was at most 0.026.

In the case of A54C G59C A87G, the nonsense suppression was at most 0.026.

U8G G73U: the nonsense suppression is at most 0.026.

Consider U2A U70G, for which the nonsense suppression was at most 0.026.

Regarding G10C C29G C79U, the nonsense suppression was at most 0.026.

Take A54G G69C C81G: the nonsense suppression was at most 0.026.

Take U20G U21A U71C U76C: the nonsense suppression is at most 0.026.

As for A23G U55G, the nonsense suppression is at most 0.026.

For U70A C83A, the nonsense suppression was at most 0.026.

As to C34G G84A, the nonsense suppression is at most 0.026.

On to C1A U2C C3G, for which the nonsense suppression was at most 0.026.

As to C1G G18C G25U A60C, the nonsense suppression is at most 0.026.

As to G32A U57G, the nonsense suppression was at most 0.026.

G7U C11G: the nonsense suppression was at most 0.026.

As for G28C G67C C79U, the nonsense suppression is at most 0.026.

As to C1U C29U, the nonsense suppression is at most 0.026.

As for G25C U57C G84A, the nonsense suppression is at most 0.026.

U63G C77G: the nonsense suppression was at most 0.026.

In the case of G6C A60C C75A, the nonsense suppression was at most 0.026.

With C11U U17A G18C A30G, the nonsense suppression was at most 0.026.

On to A14C A33C, for which the nonsense suppression was at most 0.026.

Regarding G88A, the nonsense suppression was at most 0.026.

Regarding U21C G84A, the nonsense suppression is at most 0.026.

Turning to G7C U8C G61A G65A C82A G84A, the nonsense suppression was at most 0.026.

As to C12A A23G C83A, the nonsense suppression is at most 0.026.

Regarding U70C C75G, the nonsense suppression was at most 0.026.

A30U C34G U70G: the nonsense suppression was at most 0.026.

For A23G C56G G65A U71G, the nonsense suppression was at most 0.026.

As to U8A U17A U71C, the nonsense suppression is at most 0.026.

Turning to A23U A60C A62G U76C, the nonsense suppression was at most 0.026.

For the variant C3G G61U, the nonsense suppression is at most 0.026.

Turning to G18U G59A, the nonsense suppression is at most 0.026.

In the case of U16G A23U C29U U55C G61A, the nonsense suppression is at most 0.026.

With C1G C81A, the nonsense suppression was at most 0.026.

On to U22A U70G G84A, for which the nonsense suppression was at most 0.026.

On to C5A C75A C82A, for which the nonsense suppression is at most 0.026.

Regarding A9G G61A G85A, the nonsense suppression turned out to be 0.303.

Take C1U A23G C27G U63A: the nonsense suppression was at most 0.026.

For U20A G28U U70A C81U, the nonsense suppression was at most 0.026.

A13U U57C: the nonsense suppression was at most 0.026.

As for C12U G19U U57C C77A A89U, the nonsense suppression was at most 0.026.

With G15U U21C C29A A62C, the nonsense suppression was at most 0.026.

Take A31U U57A: the nonsense suppression was 0.963.

For G26C C27U, the nonsense suppression was at most 0.026.

For the variant U22C G25U, the nonsense suppression is at most 0.026.

Turning to A24C G65A C79G G85C, the nonsense suppression is at most 0.026.

For C1U C12U, the nonsense suppression was at most 0.026.

For C5U A33G C34G U71C, the nonsense suppression was at most 0.026.

As for C5A G25U C29U A60C, the nonsense suppression was at most 0.026.

U4A U57A: the nonsense suppression was at most 0.026.

Regarding A13C A60C, the nonsense suppression is 0.29.

For the variant C56U G69A, the nonsense suppression is at most 0.026.

A9U U20C G25U U71A: the nonsense suppression was at most 0.026.

With G18C U21C C79U, the nonsense suppression is at most 0.026.
